The values below come from the supplement of paper PMC11417369.

± gives the standard deviation of the averaged measurements. The list shows a part of the results.

The test system of the test is PfAP2-EXP AP2 domain (GST-tagged). The experiment in a line: gcPBM binding intensity (ln(normalized median fluorescence intensity)); higher = stronger DNA binding. Summed up: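 For binding intensity, the highest Masliner-normalised natural-log median intensity across replicate spots of either probe orientation was taken. Protein bound to the array was stained with Alexa488 anti-GST antibody and scanned at 488 nm. The protein, GST-tagged P. falciparum DNA-binding domains from E. coli at about 25 μg on average, had been applied for 1 h to an Agilent 4 × 180k array of primer-extended double-stranded 36-bp intergenic genomic probes and negative controls.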
“TATACAATATTTATAACACACATATTTATATAAACT [CACACA_site6932]”: the “gcPBM binding intensity (ln)” value stood at 8.39 ± 0.35.
Then “ACTAAACAATATGTATGTACATATTTTACATATAAT [XGTACX_site3318]”, with 8.54 ± 0.27.
As to “AGAACATTTTCTCAGTGTACTTATATATTTGACATA [XGTACX_site6541]”, the “gcPBM binding intensity (ln)” value was found to be 8.62 ± 0.32.
As for “ATATATCATGAACCTTGTACGTATATATATATATAT [XGTACX_site239]”, the “gcPBM binding intensity (ln)” value came to 10.2 ± 0.23.
In the case of “ACTTCCTATATTTATGCATGCATTTTATTAAAAAAT [TGCATGCA_site747]” it was 9.92 ± 0.16; in that of “ATTTATTTATTTATATGTACATATATATATATATAT [XGTACX_site339]”, 10.1 ± 0.3; in that of “GATGGAATCTAATTTACATGCAGTGATATAATAAAT [TGCATGCA_site1031]”, 9.12 ± 0.27.
Then “TAATAATAACCGTTATGTACACAATTTTGTGAACAT [XGTACX_site8053]”, with 8.35 ± 0.18; and “TACAGACAGAAACACACACACACGCATAAAAAAAAA [CACACA_site1514]”, with 8.7 ± 0.52; and “GTTAAGTGTATATATACACACATATGTAATACATGA [CACACA_site3048]”, with 8.92 ± 0.42.
Then “AATATTGAAATAACGCGTACAAAAAAAAGTTATATT [XGTACX_site6559]”, with 8.84 ± 0.63; and “TAAAAATATATGTATACACACATATATATATATATA [CACACA_site3951]”, with 10.1 ± 0.43; and “AAAAAAAGTGACTCCTTACACACTTTACATAATTTA [CACACA_site820]”, with 8.34 ± 0.45.
Consider “ATATGTAGAATAAAAAAAAAAAAAAAAAAAAAAAAT [CACACA_negctrl_site621]”, for which the “gcPBM binding intensity (ln)” value worked out at 8.16 ± 0.47.
Then “TAATTAAAATTATATATTAGAAAAAACATATAAAAC [CACACA_negctrl_site190]”, with 8.6 ± 0.42; and “ATGTTATATTATAAAAGTACATTTTATTTTTATTTA [XGTACX_site4365]”, with 8.65 ± 0.45; and “TTAATTTATAAAAACACACACAGGTAAAAAGGTGCA [CACACA_site1177]”, with 9.2 ± 0.15.
“ATTTCCTTTTTCTGTTGTACTCATAAAATAATATGT [XGTACX_site7234]”: the “gcPBM binding intensity (ln)” value was 9.11 ± 0.43.
Consider “TAACAAAAAGCACTTAGTACATATATATATATATAT [XGTACX_site1099]”, for which the “gcPBM binding intensity (ln)” value is 10.1 ± 0.49.
In the case of “AATATAACTTTTTGCACACTTAATTTTTTTTTTTAA [CACACA_site3365]” it was 8.79 ± 0.3; in that of “AGGTAATATACTAAATGTACAGAAAAACGAATTTTT [XGTACX_site2977]”, 8.59 ± 0.37; in that of “TTTCTTTTTAAATATATACACACCGGGTGTACATAT [CACACA_site3345]”, 8.47 ± 0.33.
Then “TATATTTATTATAACACACACATATTTATATTATAG [CACACA_site6628]”, with 8.33 ± 0.42; and “AATGAAATAATACAATGTACGTTAAAAAAAAATAAA [XGTACX_site7928]”, with 8.74 ± 0.47; and “GTATTATTTTATGATGCATGTGTATTTCATATATGC [TGCATGCA_site660]”, with 8.66 ± 0.26.
As to “TAATATCAAACCTATAGTACATAAGGTATAAAAAAG [XGTACX_site3533]”, the “gcPBM binding intensity (ln)” value was 8.64 ± 0.42.
Then “TTTTTTTTTCCTTCTTGTACATATTATATATACATA [XGTACX_site5988]”, with 8.84 ± 0.43; and “TGGAACGTAATAAAATGTACATACGTTTTTCATATG [XGTACX_site6229]”, with 8.61 ± 0.45; and “GACAAATTAATCGATTGTACACAATTTGTTTCGTTG [XGTACX_site35]”, with 8.82 ± 0.44.
Take “AACACATACATATATGCACACATTTTATTCCATTAT [CACACA_site2834]”: the “gcPBM binding intensity (ln)” value came to 9.04 ± 0.4.
Then “TTTTTTTTTTTTTGTACATGCAAATATTATGAACAC [TGCATGCA_site571]”, with 8.77 ± 0.17; and “TTCACATATATATAACGTACATTATTATTATTCTGA [XGTACX_site6006]”, with 8.53 ± 0.36; and TTAGAAGGGATTAAAGTGCAAAATAGGATTAGAGTA, with 9.14 ± 0.33.
For “TACAAGTATAAATAAGCACACATGTGTATATGTACA [CACACA_site7911]”, the “gcPBM binding intensity (ln)” value was found to be 8.89 ± 0.37.
As for “TCTTATTTAATTAAACAAAAGAAAAAGAAAGAAAAG [CACACA_negctrl_site1569]”, the “gcPBM binding intensity (ln)” value came to 8.57 ± 0.61.
Then “TTTTTTTTTTTTTTAACACACATATAAATATTTTTC [CACACA_site6985]”, with 8.38 ± 0.51; and “AAATGGAGTTAATATTGTACATATATATATATATAT [XGTACX_site5452]”, with 10.3 ± 0.18.
Then “TGCATTTTACTTGTTACACACATATAAAATTAACCA [CACACA_site7387]”, with 8.64 ± 0.3; and “ATTCTTGTTATATAAGGTACAGAACAAAATATAAAA [XGTACX_site5510]”, with 8.72 ± 0.38; and “TTTGGGATAAAACAAAGTACTAACAAAATATATAAT [XGTACX_site8240]”, with 8.85 ± 0.47.
Then “AAAGTTTTAAGAAAATGTACATAAGTATACATATAT [XGTACX_site1293]”, with 8.68 ± 0.41; and “TTTTTCTATTCCATTCAACACACAAAAATGTATGCT [CACACA_site8268]”, with 8.59 ± 0.38.
In the case of “TTTTCATATATTTATTGTACATATTACATATATAAT [XGTACX_site2425]”, the “gcPBM binding intensity (ln)” value stood at 8.71 ± 0.23.
Take “TTTTATAAATATTTTTGTACACATTTAAATATTATT [XGTACX_site4973]”: the “gcPBM binding intensity (ln)” value was 8.63 ± 0.45.
Then “TTTTTTTAATAAAAGTGTACCAAATTATATACACAT [XGTACX_site6811]”, with 8.37 ± 0.42; and “AGAGAGAACGGTATAACATGCAATAAATTTCAGAAG [TGCATGCA_site423]”, with 9.14 ± 0.38; and “ATTTATAAATCAAAGTGTACATATGTTTTATTTTTT [XGTACX_site804]”, with 8.85 ± 0.32.
Take “ATCGGTAATATTAACACACACATTTATTTATATTTA [CACACA_site6638]”: the “gcPBM binding intensity (ln)” value worked out at 8.7 ± 0.49.
Then “TTTTATTATATGGAGGTGCATATATAATAATATAAT [GTGCAC_site9477]”, with 8.87 ± 0.16; and “ATGTATGTAATAAAAAGTACATATGTTCATAATAAA [XGTACX_site842]”, with 8.49 ± 0.13; and “TTCTTTTTAAATATACTAATTATGTATAAAACAGAA [GTGCAC_negctrl_site131]”, with 8.23 ± 0.29.
Consider “CAAATAAAAATAAGGAGTACAATTAAAAAAGGAAGG [XGTACX_site4366]”, for which the “gcPBM binding intensity (ln)” value stood at 8.96 ± 0.39.
In the case of “GAAAAGAAAAATAAACGTACATAAATATTAACATTA [XGTACX_site8213]”, the “gcPBM binding intensity (ln)” value turned out to be 8.46 ± 0.33.
With “AAAATAAAAAAGTGTACACATATTAAAATGTATTTA [CACACA_site4424]”, the “gcPBM binding intensity (ln)” value was 8.63 ± 0.26.
In the case of “AATATATTTTAATATACACACATATCTGCTCTTTAA [CACACA_site6130]” it was 8.27 ± 0.38; in that of “TCATTGTTAAGCTGAAGTACTTATAATTACATCGAG [XGTACX_site6340]”, 8.63 ± 0.27; in that of “TAAAATTATATAAAGGAACACACATTTTATTTTATT [CACACA_site8423]”, 8.51 ± 0.23.
In the case of “TGTCAATCATATAAATGTACATTTTAAATGAGGTGT [XGTACX_site7391]”, the “gcPBM binding intensity (ln)” value turned out to be 8.81 ± 0.4.
As to “TATTAGCATGTTATTACACACAATATAAAATATATA [CACACA_site1401]”, the “gcPBM binding intensity (ln)” value was determined as 8.37 ± 0.33.
Take “AAATTATGAACATATTGTACATATATATATATATAT [XGTACX_site8269]”: the “gcPBM binding intensity (ln)” value is 10.1 ± 0.45.
For “AATTAAATTACTTATACACACATAAAATGTCTGTAT [CACACA_site997]”, the “gcPBM binding intensity (ln)” value worked out at 8.29 ± 0.46.
In the case of “CATGTATGTACCATGGTGCAACAATATTTTTAACAA [GTGCAC_site9597]” it was 8.88 ± 0.31.
For the sequence “ATTATATAAATTATATGTACGTATTTTTTTTTTTTT [XGTACX_site1908]”, the “gcPBM binding intensity (ln)” value came out at 8.5 ± 0.37.
On to “TTTATTTCTATATTTACATGCAAAGGGTTAGTTATA [TGCATGCA_site983]”, for which the “gcPBM binding intensity (ln)” value stood at 8.68 ± 0.3.
In the case of “AAGAAAAAGAATAGACGGACAACTAATATAAAATAT [XGTACX_site7905]” it was 9.04 ± 0.29; in that of “GATCTTTTTTTTCTTACTTTACAATTTTTTTTTTAC [XGTACX_negctrl_site101]”, 8.83 ± 0.55; in that of “TTTTTTTTTTTCATGTGTACATATATTTTCACTTTA [XGTACX_site4475]”, 8.79 ± 0.4.
In the case of “GTTTTACACAGACATGCATGTGAAAATTTGATGGTA [TGCATGCA_site308]” it was 9.23 ± 0.29; in that of “TATCATCATGTATGTACACACATACCTATATTATGT [CACACA_site6768]”, 8.77 ± 0.25; in that of “TGTATAAAACATGGGTGTACTGAACTCAATCATATA [XGTACX_site1215]”, 8.6 ± 0.29.
On to “AAAATAACAAAATAAAGTACTTTTAAAAGATATAAT [XGTACX_site7632]”, for which the “gcPBM binding intensity (ln)” value is 8.85 ± 0.35.
With “AAAAGTAACAAAGCTACACACATTTAAATAAACATA [CACACA_site1421]”, the “gcPBM binding intensity (ln)” value worked out at 8.48 ± 0.35.
In the case of “TTTTTAATTCAAACAATAATATGTTATATTTCAAAT [TGCATGCA_negctrl_site27]” it was 8.04 ± 0.45.
In the case of “GATTTTCTAATTTCTACACACATATAAGAATATTCA [CACACA_site7340]” it was 8.52 ± 0.4; in that of “TATACTCATTTTTATACACACTTGTTTTATAAAACG [CACACA_site4561]”, 8.67 ± 0.47.
In the case of “ATATATATATATATATGTACATATGTATGTGTTTGT [XGTACX_site397]” it was 9.93 ± 0.42; in that of “CTATATGTATAAAGTTGTACAGTTTTTCAAAGTTAA [XGTACX_site6652]”, 8.36 ± 0.35; in that of “AAATTTATTATGAACATACACACAAAAAAAAAAAGT [CACACA_site2053]”, 8.82 ± 0.47.
For TACATCATCTATAAGGTGCATTTTAGTTCTATTAAA, the “gcPBM binding intensity (ln)” value was found to be 8.77 ± 0.44.
In the case of “TATATATTTTATTATTGTACGAATTATTTATTTTAC [XGTACX_site8105]” it was 8.46 ± 0.36; in that of “TTTTTTCTAATATCTTTGCCTTTTTCTTTATTTATT [CACACA_negctrl_site1053]”, 8.71 ± 0.5; in that of “TATAAAAAGCATAACACACACATGTCAATATAAATA [CACACA_site6648]”, 8.7 ± 0.45.
Consider “TATTGAAACCCACACGAACACACGTATTTCATAAAC [CACACA_site251]”, for which the “gcPBM binding intensity (ln)” value was 8.62 ± 0.45.
In the case of “ATGGACATTTTATAAATCACAATGGATATTTTATAA [CACACA_negctrl_site1830]” it was 8.37 ± 0.61; in that of “TTTTTTTTTTTTTTGTGTACATATAATGCACATTAT [XGTACX_site6505]”, 8.52 ± 0.4; in that of “TACTTTTATATAGAAAGTACATACAATTCATAGAAT [XGTACX_site2182]”, 8.42 ± 0.38.
In the case of “CATAAATACATACATACACACATATTTATATTTATA [CACACA_site7071]” it was 8.47 ± 0.39.
In the case of “ATATACATATATATATGTACTGAAAAGAAAAGAATT [XGTACX_site150]” it was 8.78 ± 0.38.
As to “ATAATTATATATATATGTACATATTATATATATATA [XGTACX_site4526]”, the “gcPBM binding intensity (ln)” value stood at 9.53 ± 0.28.
